Out of some 410,000 compounds screened, about 6,400 (1.6%) were called active. The inconclusive results got no clear call from the source; some entries with a clear call stand among them for comparison. Calls follow the shape of the dose curve; as a rule, active = well fitted inhibition curve with a large enough effect; inconclusive = small, poorly fitted or top-dose-only effect; inactive = no such curve, though single readings can be large or run the other way. Potencies of inconclusive entries are left out as doubtful fits.
Molecular target: Glucagon-like peptide 1 receptor (Homo sapiens) (UniProt P43220)
Assay: qHTS of GLP-1 Receptor Inverse Agonists (Inhibition Mode); also: nearly all actives have a fitted effect of over 55% in size
Conditions: HEK293 GLP-1R CRE-luciferase, luminescence, 24 h, GLP-1R form is constitutively active; activity change, negative = inhibition: at 38.3 µM (top of the series) unless noted
How it was run: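 Readout was luciferase luminescence, measured 12 min after detection reagent at room temperature. Beforehand, GLP-1R reporter HEK293 cells had sat 12 h, then received compounds for 24 hr at 37 deg C.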
% is scaled to controls: 0 for no effect and ±100 for the full control effect; potency is read from the fitted curve at half-maximal effect; tags tell the direction and shape of the fitted curve.

Sequence of UniProt P43220 (P43220 whole entry, looked up): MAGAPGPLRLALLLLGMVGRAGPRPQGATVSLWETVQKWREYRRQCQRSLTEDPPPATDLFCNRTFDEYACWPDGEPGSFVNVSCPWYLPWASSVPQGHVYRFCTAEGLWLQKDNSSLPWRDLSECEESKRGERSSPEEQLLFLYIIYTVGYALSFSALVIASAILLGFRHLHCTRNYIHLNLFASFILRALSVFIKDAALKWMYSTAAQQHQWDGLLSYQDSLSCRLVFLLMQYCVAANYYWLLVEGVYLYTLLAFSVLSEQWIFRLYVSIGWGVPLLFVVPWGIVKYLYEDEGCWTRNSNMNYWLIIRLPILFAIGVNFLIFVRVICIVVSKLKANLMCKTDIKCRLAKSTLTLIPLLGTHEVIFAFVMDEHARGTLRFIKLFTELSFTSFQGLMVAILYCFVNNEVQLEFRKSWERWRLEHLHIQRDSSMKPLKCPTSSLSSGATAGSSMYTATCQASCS

SMILES | Potency | activity change, negative = inhibition
CN(C)CCCC1(c2ccc(F)cc2)OCc2cc(C#N)ccc21 (configuration not stated) | inconclusive [inhibitor, single point] | –
Cc1ccc(C2CC(c3cccs3)=NN2C(=O)CCl)cc1 (configuration not stated) | inconclusive [inhibitor, full curve, poor fit] | –
CCCn1c(=N)c(C(=O)NCc2cccnc2)cc2c(=O)n3ccccc3nc21 | – | inactive: 23.3%
CC(C)(C)C1CCc2c(sc(NC(=O)c3cccs3)c2C(=O)N2CCCCC2)C1 (configuration not stated) | active: 3.55 µM | –
COc1ccc(NC(=O)C(Cc2ccccc2)NS(=O)(=O)c2ccc3c(c2)CCN3C(C)=O)cc1 (configuration not stated) | – | inactive: 13.4%
COc1ccccc1C1=NC(c2ccc(F)cc2)N=C1C (configuration not stated) | inconclusive [inhibitor, single point] | –
O=C(N/N=C/c1cc(Cl)cc([N+](=O)[O-])c1O)C(O)(c1ccccc1)c1ccccc1 | inconclusive [inhibitor, single point] | –
COc1ccc(OC)c(C(c2nnnn2C2CCCC2)N2CCN(c3ccc(F)cc3)CC2)c1 (configuration not stated) | inconclusive [inhibitor, partial curve, poor fit] | –
S=c1[nH]nc(-c2cc(-c3ccccc3)n[nH]2)n1/N=C/c1ccc(Cl)cc1 | – | inactive: 128%
Nn1c(Cc2cccc3ccccc23)nnc1SCCOc1ccc(F)cc1 | inconclusive [inhibitor, partial curve, poor fit] | –
O=C(c1ccc(F)cc1)C1CCN(C(=O)NC2CCCCC2)CC1 | inconclusive [inhibitor, single point] | –
CCN(CC)CCC(c1ccc(N(C)C)cc1)c1c(OC)cc(OC)c2c(-c3ccccc3)cc(=O)oc12 (configuration not stated) | – | inactive: -23%
CC1CCCN(C(=O)c2cccc(S(=O)(=O)N3CCCc4ccccc43)c2)C1 (configuration not stated) | inconclusive [inhibitor, single point] | –
c1ccc2c(c1)c1ccccc1n2CN1CCOCC1 | inconclusive [inhibitor, partial curve, poor fit] | –
Cc1cnccc1CN(C)Cc1cn(C)nc1-c1cccc(Cl)c1 | – | inactive: -40.4%
COc1ccc(OC)c(CCNC(=O)Cn2ccc3cc(S(=O)(=O)N4CCCCC4)ccc32)c1 | – | inactive: -14.5%
Cc1csc2ncnc(NC3CCN(Cc4ccccc4)CC3)c12 | inconclusive [inhibitor, partial curve, poor fit] | –
COc1ccccc1OCCSc1nnnn1-c1ccc(C)cc1 | inconclusive [inhibitor, single point] | –
Cn1nc(C(=O)NCc2ccc(F)cc2)cc1C(=O)NCc1ccc(F)cc1 | inconclusive [inhibitor, partial curve, poor fit] | –
CCOc1cc(NC(=S)Nc2cccc(OC)c2)c(OCC)cc1NC(=O)C(C)C | – | inactive: 0%
Oc1ccc(C[C@H]2CNC(=S)N2C[C@H]2CCCN2C[C@H](Cc2ccccc2)N2C[C@H](Cc3ccc(O)cc3)N(CC3CCCCCC3)C2=S)cc1 | inconclusive [inhibitor, partial curve] | –

SMILES | Potency | activity change, negative = inhibition
Cc1ccc(CNc2ncnc3c2c(-c2ccccc2)cn3-c2ccccc2)cc1 | inconclusive [inhibitor, partial curve, poor fit] | –
Cc1cc(NC(=O)/C=C/c2ccccc2)c(C(C)C)cc1O | inconclusive [inhibitor, single point] | –
Cc1c([N+](=O)[O-])cc(C(=O)Nc2ccc(Cc3ccncc3)cc2)cc1[N+](=O)[O-] | inconclusive [inhibitor, single point] | –
CCOC(=O)C1=CN(Cc2cccc(F)c2)S(=O)(=O)NC1c1ccc(F)c(Cl)c1 (configuration not stated) | inconclusive [inhibitor, partial curve, poor fit] | –
COc1ccc(NC(=O)c2cc(S(=O)(=O)N(Cc3ccccc3)c3ccccc3)ccc2Cl)cn1 | inconclusive [inhibitor, partial curve, poor fit] | –
ON=C(CCc1ccccc1)CCc1ccccc1 | inconclusive [inhibitor, partial curve, poor fit] | –
COc1cc(CN2CCC(CO)(CCOc3ccccc3)CC2)cc(OC)c1 | inconclusive [inhibitor, single point] | –
COc1ccc(C2Nc3cc(OC)ccc3-n3cccc32)cc1 (configuration not stated) | inconclusive [inhibitor, single point] | –
COCC(C)N=C1NN=C(c2cc(C)n(Cc3ccccc3Cl)c2C)CS1 (configuration not stated) | inconclusive [inhibitor, single point] | –
CCCN1C(=O)/C(=C/c2ccc3c(c2)OCO3)NC1=S | inconclusive [inhibitor, partial curve, poor fit] | –
CCCCCc1c(-c2ccc(F)cc2)ncn1CCc1ccccc1OC | inconclusive [inhibitor, partial curve, poor fit] | –
CN(C)c1ccc(C(CNC(=O)c2cccc(C(F)(F)F)c2)N2CCCC2)cc1 (configuration not stated) | inconclusive [inhibitor, single point] | –
O=C(NCC1CCCO1)C(c1cccs1)N(Cc1cccs1)C(=O)Cn1nnc(-c2cccs2)n1 (configuration not stated) | inconclusive [inhibitor, partial curve] | –
O=C(CCC1CCCN(C(=O)c2ccncc2)C1)NCc1ccc(F)c(F)c1 (configuration not stated) | inconclusive [inhibitor, full curve, poor fit] | –
O=C(Nc1ccccc1)c1ccc(S(=O)(=O)N2CCCCC2)cc1 | inconclusive [inhibitor, partial curve] | –
CC1=C(C(=O)Nc2ccccc2C(=O)N2CCCCC2)SCCO1 | – | inactive: -18.6%
CN(Cc1ccccc1)C(=O)Cn1nnc(-c2ccccc2)c1COc1ccccc1 | inconclusive [inhibitor, single point] | –
Cc1cccc(C)c1NC(=O)CN(Cc1ccc(Br)cc1)S(=O)(=O)c1ccccc1 | inconclusive [inhibitor, partial curve, poor fit] | –
Cc1cc(OC(F)F)ccc1NC(=O)Nc1ccc([N+](=O)[O-])cc1 | inconclusive [inhibitor, partial curve, poor fit] | –
O=C1OC(c2ccccc2)(c2ccc(O)cc2)c2ccccc21 (configuration not stated) | inconclusive [inhibitor, single point] | –
O=C(CCCc1ccccc1)Nc1ccccc1[N+](=O)[O-] | inconclusive [inhibitor, partial curve, poor fit] | –

SMILES | Potency | activity change, negative = inhibition
CN1/C(=C\C(=O)CSc2nnc(NCc3ccccc3)s2)C(C)(C)c2ccccc21 | inconclusive [inhibitor, single point] | –
CCC1CN(C(=O)NCc2ccccc2)c2cc(C)ccc2O1 (configuration not stated) | inconclusive [inhibitor, partial curve, poor fit] | inconclusive: -73.7% [inhibitor]
N#Cc1nc(COc2ccc(F)cc2)oc1N1CCN(Cc2ccccc2)CC1 | inconclusive [inhibitor, single point] | –
c1ccc(-c2nc(N3CCN(c4ccccc4)CC3)nc(-n3ccnc3)n2)cc1 | inconclusive [inhibitor, single point] | –
Cn1nnnc1SCC(=O)N1c2ccccc2Sc2ccc(Cl)cc21 | inconclusive [inhibitor, single point] | –
CCOC(=O)C1(CCCc2ccccc2)CCN(C(=O)c2cncs2)CC1 | inconclusive [inhibitor, single point] | –
COc1ccc(C(C(=O)NC2CCCCC2)N(Cc2cccs2)C(=O)Cc2c[nH]c3ccccc23)cc1OC (configuration not stated) | inconclusive [inhibitor, partial curve, poor fit] | –
O=C(Nc1ccc(F)cc1F)c1cc(-c2ccco2)nc2ccccc12 | – | inactive: -20.2%
CCC1Oc2ccc(C)cc2N(CC(=O)NCCN2CCCCCC2)C1=O (configuration not stated) | inconclusive [inhibitor, partial curve, poor fit] | –
CCOc1ccc(NC(=O)CN(C)C(=O)c2ccc3[nH]c4c(c3c2)CC(C)CC4)cc1OCC (configuration not stated) | inconclusive [inhibitor, single point] | –
CC(C)C(=O)NC(Nc1cc(C(F)(F)F)ccc1Cl)C(Cl)(Cl)Cl (configuration not stated) | inconclusive [inhibitor, partial curve, poor fit] | –
CCNC(=O)/C(C#N)=C/c1c(N(Cc2ccccc2)Cc2ccccc2)nc2ccccn2c1=O | inconclusive [inhibitor, single point] | –
COc1c(O)c(O)c2oc(-c3ccccc3)cc(=O)c2c1OC | – | inactive: 17.5%
O=C(COC(=O)c1cc(Cl)ccc1O)NNC(=O)c1ccc([N+](=O)[O-])cc1 | – | inactive: -2.56%
C=CCn1c(-c2csc3ccccc23)n[nH]c1=S | inconclusive [inhibitor, single point] | –
Cc1c(C(=O)OCC(=O)N2CCN(c3ccccc3)CC2)oc2ccccc12 | inconclusive [inhibitor, single point] | –
CC(C(=O)c1ccccc1)[n+]1cccc(Br)c1 (configuration not stated) | – | inactive: 7.62%
Cc1ccc(S(=O)(=O)N2C[C@H]3n4c(=O)ccc(=O)n4C[C@H](OC(=O)NC4CCCC4)[C@@]3(O)C2)cc1 | inconclusive [inhibitor, partial curve, poor fit] | –
COC(=O)C1=C(C)N(Cc2ccccc2)C(=NCCc2c[nH]c3ccccc23)N[C@H]1c1cccc(C(F)(F)F)c1 | inconclusive [inhibitor, single point] | –

Source: PubChem BioAssay AID624417 (National Center for Advancing Translational Sciences (NCATS), 2012)
